The source gives no read counts; variants with many changes may rest on few reads.
B1: CPEB3 Ribozyme (parent)
chain: UAACAGGGGGCCACAGCAGAAGCGUUCACGUCGCAGCCCCUGUCAGAUUCUGGUGAAUCUGCGAAUUCUGCUGUAUAUCUC

Variants of: B1
Assay: self-cleavage, relative activity (ratio to wild type); higher = more cleavage; in vitro, sequencing
Outline: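 Libraries of CPEB3 self-cleaving ribozyme mutants came from rounds of error-prone PCR and carried barcodes, which DNA sequencing matched to variants. In vitro transcription used T7 RNA polymerase at 37°C for 5 hours, with a further 15 min in DNase I before EDTA stopped the reaction; the ribozymes cleaved during both steps. The RNA was reverse transcribed with template switching and sequenced on Illumina. Relative activity is the cleaved/total read fraction of a variant divided by that of the unmutated ribozyme, averaged over three batches with at least 5 reads.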

Row | Variant | self-cleavage
1 | A3G A20G U25A U60A | 0.34
2 | A3G A13G G70C U78A | 0.03
3 | A3G A15U A47G U60A A75G | 0.39
4 | A3G A21G A56G U60C | 0.19
5 | A2U U48C U69A | 0.1
6 | A3G A28U A35U U41A C50U U51C A77C | 0.07
7 | A3G A18G A35G A47G U78C | 1.17
8 | A3C C39U U51C A65G | 0.2
9 | A2U A13U U26A U31C C38G U66G U80C | 0.04
10 | A3G A28G U66C A75G | 0.1
11 | A3G A13U G33A U43A | 0.44
12 | A3G A13U G24A U41C C79G | 0.09
13 | A3C C23U U48G A56G U69A | 0.08
14 | A2U A20U U49C U72G | 0.26
15 | A2U G6U U26C A28G | 0.07
16 | A3G A20U U48A U78C | 0.08
17 | A2U A65U U66C | 0.17
18 | A3G A20U U25C C59U U72C | 0.1
19 | A3C A20U U41C U49A | 0.09
20 | A3G A15G A20G G33A | 0.19
21 | A2U U41C U49C | 0.36
22 | A3G A15G U26A A45C G70A U72C | 0.05
23 | A3G A15U A45U A47G U69C A75G | 0.21
24 | A3G A5G A28G U49A | 0.52

Row | Variant | self-cleavage
25 | A3G A5U U67C | 0.36
26 | A3G A13U G19A U41A A56G A57U | 0.37
27 | A3G A15G U66C | 0.56
28 | A2U G55A U69A U72A | 0.2
29 | A3G A21C U43G | 0.52
30 | A3G A35G C40A A65G G73U | 0.44
31 | A3C A13C A65U U80C | 0.36
32 | A2U A15U U25C U49A A64G U72A | 0.06
33 | A2U U41G A56G U60C | 0.28
34 | A2U A18G U26C A28G U41G U69C | 0.07
35 | A3G A28U U43C | 0.42
36 | A2U A15U U43C U80C | 0.23
37 | A2G U49C A57G | 0.28
38 | A3G A28U U67C | 0.38
39 | A3G A5G G10C U31C | 0.88
40 | A2U A13U A18U U25A A64U U69A G73C | 0.15
41 | A3G A5U U67C U74C | 0.2
42 | A2U C17U U48C U67C U72C | 0.06
43 | A2U A65G A77G | 0.4
44 | A2U G9U G10U U41C | 0.06
45 | A3G A13U A15G U26A G30A U66C | 0.25
46 | A2U A13G U26A U60C | 0.33
47 | A3G A28G G33C A35G | 0.39
48 | A3C U60C U67C U72A A77G | 0.17

Row | Variant | self-cleavage
49 | A2U A20G U25C G70A | 0.25
50 | A3G A20G U80A | 1.11
51 | A3G A28G U60A A64C U69C U80C | 0.18
52 | A2G U48C A56U | 0.13
53 | A2U C29U A35U U41C C81U | 0.3
54 | A3G A28G U49C | 0.51
55 | A3G A5G A45U U60A U80C | 0.83
56 | A3C A15G A28G U31C A45G | 0.7
57 | A2G U58G U66C A77G | 0.52
58 | A2U G9C A57G | 0.37
59 | A3G A28G U41C U58C U76C | 0.25
60 | A2U A56G A75G U80A | 0.85
61 | A2U U25C G52C | 0.11
62 | A3C U43A G61A | 0.92
63 | A3G A5U C17G U26C A65U | 0.29
64 | A3G A5U U49A | 0.94
65 | A3G A13G C59U U60A | 0.14
66 | A3G A18U C23U U49C A65G | 0.05
67 | A2U A13U A18G G19A | 0.08
68 | A3G A15U A45G U69A | 0.37
69 | A3G A35U C68A C81U | 0.27
70 | A3C A5C A13U A18G A57G | 0.7
71 | A3G A5G U78C | 0.64
72 | A2U A3U A56G | 1.1

Row | Variant | self-cleavage
73 | A3G A15G C23U U41C A64U U69A | 0.04
74 | A3G A18G C81A | 0.44
75 | A3G A18U U49A U76C | 0.5
76 | A2U A18U C23U A45U | 0.23
77 | A3G A18G U58G U72A U78C | 0.18
78 | A3G A21G C23U A35G A45U U80A | 0.17
79 | A2U U25C G36A A56G U60C U80A | 0.06
80 | A3G A28G A56G U78A | 0.83
81 | A2U A13G U31C U74C | 0.45
82 | A2U A18U U31C | 0.39
83 | A2U G33U A57G | 0.26
84 | A3G A18G U25C | 0.44
85 | A2U C23G A35G A64G U80C | 0.12
86 | A3C A5G U76C | 0.99
87 | A3G A35G A56G U72A | 1.15
88 | A2G U66C U72C | 0.22
89 | A3G A20U C71G | 0.22
90 | A3G A35G U60G A64G | 0.86
91 | A2G U43C U76C | 0.62
92 | A3G A18G U60A U74G | 0.34
93 | A2G U51A U69A | 0.31
94 | A3G A21U U25A C27U U41A | 0.22
95 | A2U U41A U51C U69A C79A | 0.03
96 | A3G A35U A56G U74C | 1.05

Row | Variant | self-cleavage
97 | A3G A28G U43C | 0.32
98 | A3G A5U U69C | 0.58
99 | A2U A15C U25A | 0.39
100 | A3G A13U A21G A28U U43C U60A U78C | 0.08
101 | A2U G10A A45U U49C A64U | 0.12
102 | A3G A5G A45G G52U U67A | 0.27
103 | A3C U25C C50A U66C | 0.39
104 | A3C C12U G16U U41C G55A | 0.2
105 | A3G A35G U72C U78A | 1.25
106 | A3G A18G U31G A45G A65G U66A | 0.42
107 | A3G A18U A20G U67A U76C | 0.33
108 | A3G A15U U25A U43A U48C U58C C79U | 0.03
109 | A3G A21C U26A G36C U41C A45G | 0.3
110 | A3C C11A U25C U49C A56U A57C U76C | 0.06
111 | A2U A13U A21G G52A A57U | 0.41
112 | A2U G22C A65U | 0.1
113 | A3C G8C U41C U69G U72C | 0.08
114 | A3G A18U G33A U72C | 0.19
115 | A3C A13G U25C U43A G63A U69A A75G | 0.01
116 | A3G A18C A20C U51C U78C | 0.11
117 | A3G A15G A18G A57G C59A U78C | 0.06
118 | A2U A5G A13U A20G U66C | 0.39
119 | A3G A15U A21G U67C U69C U74A A77G | 0.05
120 | A3G A15G A45G U54C U69C | 0.28

Row | Variant | self-cleavage
121 | A2U G6A A28G G33C U43A | 0.07
122 | A3G A28G A45G | 0.76
123 | A2U G6A A35G C40U A47G U49A A57G | 0.07
124 | A2U A3U A15U A28G A47G U48A U72A | 0.32
125 | A3G A18G U51C A64C U76A | 0.38
126 | A3G A18U C71A | 0.27
127 | A3G A28C A56G U67A | 0.19
128 | A2U A56G U80C | 1.09
129 | A3G A15G G36C C40U G46U U67G | 0.1
130 | A3G A15C U25C A45G | 0.53
131 | A3G A21G U25C U49C | 0.21
132 | A2U A56U U69C | 0.25
133 | A2U A13G A20G U80C | 0.43
134 | A2U A5U A15G A20G A45G U54A U72C | 0.89
135 | A2U A3G C40A A47U U58C U69C | 0.16
136 | A3G A15G U25C G61C U67C | 0.29
137 | A2G U60C U67C U76C | 0.16
138 | A3C A21G U51C C71G | 0.45
139 | A3G A28U A64G | 0.82
140 | A3G A21G U25C U51A U54A | 0.14
141 | A3C C39U A45U | 0.23
142 | A3G A13G G55A C62U U72A U80C | 0.14
143 | A3C A18C U25C A47G U78A | 0.1
144 | A2U U25C U78C | 0.33

Row | Variant | self-cleavage
145 | A3G A21G A47G U72C | 0.6
146 | A3G A21G U31C U49C U51C U54C G55A | 0.48
147 | A2U A13C U26A U31C U60A | 0.12
148 | A3C C23U A56U U60C | 0.34
149 | A3G A5U A21U U25C U43C U51A U69A | 0.11
150 | A2U A28G U54C A64U A65U | 0.13
151 | A3G A13G A28G A64G U67C G70A U74A | 0.56
152 | A3G A20G U25A C38U C44A U54C C68G | 0.04
153 | A3G A20U U49C U72A | 0.35
154 | A3G A18U U67A | 0.25
155 | A2G U51C U78A | 0.49
156 | A3G A28U A75G | 0.83
157 | A2U A20G U41C U43A | 0.66
158 | A2U A18G A20U U72A A77G | 0.12
159 | A2U U72A C81U | 0.39
160 | A2U A5G U49A A65U | 0.42
161 | A3C C12A U26C U54C | 0.83
162 | A2U A20G G30A A35G U51C A56U | 0.17
163 | A3C G8A G9A U31C U67G | 0.26
164 | A3G A20G U25C A64G | 0.08
165 | A3G A35G U49C | 0.92
166 | A3G A18C A45G | 0.46
167 | A3G A5G A20G A35G U78C | 1.1

— the RNAGym collection of RNA variant scans (doi:10.1093/nar/gkz1192)
